From patent publication US7122563B2, “Derivatives of 4-demethylpenclomedine, use thereof and preparation thereof” (Southern Research Institute, priority 2005, dated 2006)

System: MX-1 Mammary Tumor
Assay: MX-1 mammary tumor implanted in the mammary fat pad of mice, i.p. treatment
Conditions: dosages of 135, 90 and 60 mg/kg per dose

Row | SMILES | antitumor activity in comparison to DM-PEN
1 | CCN(CC)C(=S)Oc1c(Cl)c(OC)nc(C(Cl)(Cl)Cl)c1Cl [DM-DETC-PEN] | potent antitumor activity greater than that observed for DM-PEN
2 | COc1nc(C(Cl)(Cl)Cl)c(Cl)c(OC(=S)N(C)C)c1Cl [DM-DMTC-PEN] | potent antitumor activity greater than that observed for DM-PEN
